We go through 21 molecules from ChEMBL document CHEMBL3098072 (Bioorg Med Chem, 2014).

Converted amounts (≈) assume the structure as drawn.

For this experiment, the system named is Mycobacterium tuberculosis. Nature of the experiment: microbe, parasite or virus in culture. The following applies: H37Rv-CV-Lux AB, 240 h.

In the case of `Cc1ccc(-c2cnnc(N3CCC(n4cnc5c(N)ncnc54)C3)n2)o1` (stereo unspecified), the MIC is > 128 µM.

Consider `Clc1cccc(C2CCN(c3nncc(-c4ccc(Br)cc4)n3)C2)c1` (stereo unspecified), for which the MIC came to 77.7 µM (≈ 32.3 µg/mL).

The molecule `CO[C@H]1/C=C/O[C@@]2(C)Oc3c(C)c(O)c4c(O)c(c(/C=N/N5CCN(C)CC5)c(O)c4c3C2=O)NC(=O)/C(C)=C\C=C\[C@H](C)[C@H](O)[C@@H](C)[C@@H](O)[C@@H](C)[C@H](OC(C)=O)[C@@H]1C` [RIFAMPIN] displayed an MIC of 0.24 µM (≈ 0.198 µg/mL).

`Cc1ccc(-c2cnnc(N3CCC(c4cccc(C#N)c4)C3)n2)o1` (stereo unspecified) displayed an MIC of 50.3 µM (≈ 16.7 µg/mL).

On to `COc1ccc(C2CCN(c3nncc(-c4ccc(C)o4)n3)C2)cc1O` (stereo unspecified), for which the MIC is > 128 µM.

Take `COC(=O)c1cccc(-c2ccc(-c3cnnc(N4CCC(c5cccc(Cl)c5)C4)n3)o2)c1` (stereo unspecified): the MIC is > 16 µM.

Take `FC(F)(F)c1ccccc1-c1ccc(-c2cnnc(N3CCC(c4cccc(Cl)c4)C3)n2)o1` (stereo unspecified): the MIC was > 128 µM.

In the case of `O=[N+]([O-])c1cccc(-c2cnnc(N3CCC(c4cccc(Cl)c4)C3)n2)c1` (stereo unspecified), the MIC was > 128 µM.

With `Clc1cccc(C2CCN(c3nncc(-c4ccc5c(c4)OCO5)n3)C2)c1` (stereo unspecified), the MIC was > 16 µM.

Turning to `O=[N+]([O-])c1cccc(-c2ccc(-c3cnnc(N4CCC(c5cccc(Cl)c5)C4)n3)cc2)c1` (stereo unspecified), the MIC was > 128 µM.

Turning to `O=[N+]([O-])c1cccc(-c2ccc(-c3cnnc(N4CCC(c5cccc(Cl)c5)C4)n3)o2)c1` (stereo unspecified), the MIC was > 16 µM.

Take `Cc1ccc(-c2cnnc(N3CCC(c4cccc([N+](=O)[O-])c4)C3)n2)o1` (stereo unspecified): the MIC was > 16 µM.

As to `Cc1ccc(-c2cnnc(N3CCC(c4cccc(O)c4)C3)n2)o1` (stereo unspecified), the MIC worked out at 58.9 µM (≈ 19 µg/mL).

`Cc1ccc(-c2cnnc(N3CCC(c4cccc(N)c4)C3)n2)o1` (stereo unspecified) had an MIC of 47.1 µM (≈ 15.1 µg/mL).

Regarding `Cc1ccc(-c2cnnc(N3CCC(c4ccc(O)c(O)c4)C3)n2)o1` (stereo unspecified), the MIC was > 128 µM.

Consider `Cc1ccc(-c2cnnc(N3CCC(c4ccccc4)C3)n2)o1` (stereo unspecified), for which the MIC was 54.7 µM (≈ 16.8 µg/mL).

Turning to `Cc1ccc(-c2cnnc(N3CCC(c4cccc(Cl)c4)C3)n2)o1` (stereo unspecified), the MIC is 58.8 µM (≈ 20 µg/mL).

For `Cc1ccc(-c2cnnc(N3CCC(c4cccc(F)c4)C3)n2)o1` (stereo unspecified), the MIC was 47.9 µM (≈ 15.5 µg/mL).

In the case of `O=[N+]([O-])c1ccc(-c2cnnc(N3CCC(c4cccc(Cl)c4)C3)n2)cc1` (stereo unspecified), the MIC is > 128 µM.

`Cc1ccc(-c2cnnc(N3CCC(c4cccc(C(F)(F)F)c4)C3)n2)o1` (stereo unspecified) showed an MIC of 57.6 µM (≈ 21.6 µg/mL).

`Nc1ccc(-c2cnnc(N3CCC(c4cccc(Cl)c4)C3)n2)cc1` (stereo unspecified): the MIC is > 128 µM.
